Article PMC9911399, “Two distinct binding modes provide the RNA-binding protein RbFox with extraordinary sequence specificity”
Residue numbers refer to the chain shown, from its start. This is one part of the list.

B1: GAGACGC (DNA:RNA)
RNA: GGGAGACCGGAAUUCAGAUUGUCCGAGACGCUUAAAUCCCGUCGUAGCCACCA
DNA 1: CAATCTGAATTCCGGTCTCCC
DNA 2: TGGTGGCTACGACGGGATT
B2: GCUUGAU (DNA:RNA)
RNA: B1 RNA with A26C, G27U, A28U, C29G, G30A, C31U
DNA 1: CAATCTGAATTCCGGTCTCCC
DNA 2: TGGTGGCTACGACGGGATT
B3: UUGCACU (DNA:RNA)
RNA: B1 RNA with G25U, A26U, A28C, C29A, G30C, C31U
DNA 1: CAATCTGAATTCCGGTCTCCC
DNA 2: TGGTGGCTACGACGGGATT
B4: ACCCCAA (DNA:RNA)
RNA: B1 RNA with G25A, A26C, G27C, A28C, G30A, C31A
DNA 1: CAATCTGAATTCCGGTCTCCC
DNA 2: TGGTGGCTACGACGGGATT
B5: CGAACCG (DNA:RNA)
RNA: B1 RNA with G25C, A26G, G27A, G30C, C31G
DNA 1: CAATCTGAATTCCGGTCTCCC
DNA 2: TGGTGGCTACGACGGGATT
B6: UACGCGU (DNA:RNA)
RNA: B1 RNA with G25U, G27C, A28G, C31U
DNA 1: CAATCTGAATTCCGGTCTCCC
DNA 2: TGGTGGCTACGACGGGATT
B7: AACCUGG (DNA:RNA)
RNA: B1 RNA with G25A, G27C, A28C, C29U, C31G
DNA 1: CAATCTGAATTCCGGTCTCCC
DNA 2: TGGTGGCTACGACGGGATT
B8: UCAAUGU (DNA:RNA)
RNA: B1 RNA with G25U, A26C, G27A, C29U, C31U
DNA 1: CAATCTGAATTCCGGTCTCCC
DNA 2: TGGTGGCTACGACGGGATT
B9: UGAGGGU (DNA:RNA)
RNA: B1 RNA with G25U, A26G, G27A, A28G, C29G, C31U
DNA 1: CAATCTGAATTCCGGTCTCCC
DNA 2: TGGTGGCTACGACGGGATT
B10: AAGGUGU (DNA:RNA)
RNA: B1 RNA with G25A, A28G, C29U, C31U
DNA 1: CAATCTGAATTCCGGTCTCCC
DNA 2: TGGTGGCTACGACGGGATT
B11: ACAUACA (DNA:RNA)
RNA: GGGAGACCGGAAUUCAGAUUGUCCACAUACAUUAAAUCCCGUCGUAGCCACCA
DNA 1: CAATCTGAATTCCGGTCTCCC
DNA 2: TGGTGGCTACGACGGGATT
B12: UACGUGG (DNA:RNA)
RNA: B1 RNA with G25U, G27C, A28G, C29U, C31G
DNA 1: CAATCTGAATTCCGGTCTCCC
DNA 2: TGGTGGCTACGACGGGATT
B13: CUGCUUG (DNA:RNA)
RNA: B1 RNA with G25C, A26U, A28C, C29U, G30U, C31G
DNA 1: CAATCTGAATTCCGGTCTCCC
DNA 2: TGGTGGCTACGACGGGATT
B14: GUAGCCC (DNA:RNA)
RNA: B1 RNA with A26U, G27A, A28G, G30C
DNA 1: CAATCTGAATTCCGGTCTCCC
DNA 2: TGGTGGCTACGACGGGATT
B15: CUUGCUC (DNA:RNA)
RNA: B1 RNA with G25C, A26U, G27U, A28G, G30U
DNA 1: CAATCTGAATTCCGGTCTCCC
DNA 2: TGGTGGCTACGACGGGATT
B16: AUUAACA (DNA:RNA)
RNA: B11 RNA with C26U, A27U, U28A
DNA 1: CAATCTGAATTCCGGTCTCCC
DNA 2: TGGTGGCTACGACGGGATT
B17: AGAGCGA (DNA:RNA)
RNA: B11 RNA with C26G, U28G, A29C, C30G
DNA 1: CAATCTGAATTCCGGTCTCCC
DNA 2: TGGTGGCTACGACGGGATT
B18: GCUCUUG (DNA:RNA)
RNA: B11 RNA with A25G, A27U, U28C, A29U, C30U, A31G
DNA 1: CAATCTGAATTCCGGTCTCCC
DNA 2: TGGTGGCTACGACGGGATT
B19: GGCCCAU (DNA:RNA)
RNA: B1 RNA with A26G, G27C, A28C, G30A, C31U
DNA 1: CAATCTGAATTCCGGTCTCCC
DNA 2: TGGTGGCTACGACGGGATT
B20: CCAAUCG (DNA:RNA)
RNA: B11 RNA with A25C, U28A, A29U, A31G
DNA 1: CAATCTGAATTCCGGTCTCCC
DNA 2: TGGTGGCTACGACGGGATT
B21: AUCUGUC (DNA:RNA)
RNA: B11 RNA with C26U, A27C, A29G, C30U, A31C
DNA 1: CAATCTGAATTCCGGTCTCCC
DNA 2: TGGTGGCTACGACGGGATT
B22: GCGUAGA (DNA:RNA)
RNA: B11 RNA with A25G, A27G, C30G
DNA 1: CAATCTGAATTCCGGTCTCCC
DNA 2: TGGTGGCTACGACGGGATT
B23: UGAUCGG (DNA:RNA)
RNA: B11 RNA with A25U, C26G, A29C, C30G, A31G
DNA 1: CAATCTGAATTCCGGTCTCCC
DNA 2: TGGTGGCTACGACGGGATT
B24: UUACGGU (DNA:RNA)
RNA: B11 RNA with A25U, C26U, U28C, A29G, C30G, A31U
DNA 1: CAATCTGAATTCCGGTCTCCC
DNA 2: TGGTGGCTACGACGGGATT
B25: GCUUUUU (DNA:RNA)
RNA: B11 RNA with A25G, A27U, A29U, C30U, A31U
DNA 1: CAATCTGAATTCCGGTCTCCC
DNA 2: TGGTGGCTACGACGGGATT
B26: UUGCCCA (DNA:RNA)
RNA: B11 RNA with A25U, C26U, A27G, U28C, A29C
DNA 1: CAATCTGAATTCCGGTCTCCC
DNA 2: TGGTGGCTACGACGGGATT
B27: GCAGUGU (DNA:RNA)
RNA: B11 RNA with A25G, U28G, A29U, C30G, A31U
DNA 1: CAATCTGAATTCCGGTCTCCC
DNA 2: TGGTGGCTACGACGGGATT
B28: CAGAAAG (DNA:RNA)
RNA: B1 RNA with G25C, C29A, G30A, C31G
DNA 1: CAATCTGAATTCCGGTCTCCC
DNA 2: TGGTGGCTACGACGGGATT
B29: UCAGUAC (DNA:RNA)
RNA: B11 RNA with A25U, U28G, A29U, C30A, A31C
DNA 1: CAATCTGAATTCCGGTCTCCC
DNA 2: TGGTGGCTACGACGGGATT
B30: UGUUAUC (DNA:RNA)
RNA: B11 RNA with A25U, C26G, A27U, C30U, A31C
DNA 1: CAATCTGAATTCCGGTCTCCC
DNA 2: TGGTGGCTACGACGGGATT
B31: GUCCCCU (DNA:RNA)
RNA: B1 RNA with A26U, G27C, A28C, G30C, C31U
DNA 1: CAATCTGAATTCCGGTCTCCC
DNA 2: TGGTGGCTACGACGGGATT

molecular target: T1, RBFOX1 RRM (Homo sapiens, UniProt Q9NWB1 109-208); test: EMSA; HiTS-Eq, 1 nM pool, 10 min; buffer printed only for the single-RNA assays: 10 mM Tris pH 7.5, 150 mM NaCl, 3.4 mM EDTA, 0.001% NP-40, 30 C; settings: tags: His6 N-terminal (pET28a); label: 5' 32P
T1 sequence: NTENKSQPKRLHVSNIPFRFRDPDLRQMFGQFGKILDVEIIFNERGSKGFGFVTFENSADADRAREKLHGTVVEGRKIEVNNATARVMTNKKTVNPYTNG
Summary of the method: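 Purified RbFox RRM (wild type or mutant) was equilibrated for 10 min in 50 µL with 1 nM of a 5′-radiolabelled pool of RNA with 7 randomized nucleotides, its flanks annealed to DNA oligonucleotides, across increasing protein concentrations. Free RNA was separated by 8% native PAGE, excised, reverse-transcribed, PCR-barcoded and sequenced on an Illumina HiSeq 2500. Relative association constants came from read-count changes of each variant against the control reaction, normalised to the cognate motif.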

| Binder | binding signal |
| --- | --- |
| B1 | 0.0106 KA relative to UGCAUGU |
| B2 | 0.0264 KA relative to UGCAUGU |
| B3 | 0.021 KA relative to UGCAUGU |
| B4 | 0.000575 KA relative to UGCAUGU |
| B5 | 0.00395 KA relative to UGCAUGU |
| B6 | 0.0119 KA relative to UGCAUGU |
| B7 | 0.00933 KA relative to UGCAUGU |
| B8 | 0.00747 KA relative to UGCAUGU |
| B9 | 0.00661 KA relative to UGCAUGU |
| B10 | 0.012 KA relative to UGCAUGU |
| B11 | 0.00154 KA relative to UGCAUGU |
| B12 | 0.00795 KA relative to UGCAUGU |
| B13 | 0.0459 KA relative to UGCAUGU |
| B14 | 0.00684 KA relative to UGCAUGU |
| B15 | 0.0175 KA relative to UGCAUGU |
| B16 | 0.000726 KA relative to UGCAUGU |

| Binder | binding signal |
| --- | --- |
| B17 | 0.0101 KA relative to UGCAUGU |
| B18 | 0.014 KA relative to UGCAUGU |
| B19 | 0.00262 KA relative to UGCAUGU |
| B20 | 0.00227 KA relative to UGCAUGU |
| B21 | 0.00822 KA relative to UGCAUGU |
| B22 | 0.0101 KA relative to UGCAUGU |
| B23 | 0.0143 KA relative to UGCAUGU |
| B24 | 0.00767 KA relative to UGCAUGU |
| B25 | 0.013 KA relative to UGCAUGU |
| B26 | 0.0104 KA relative to UGCAUGU |
| B27 | 0.0135 KA relative to UGCAUGU |
| B28 | 0.00694 KA relative to UGCAUGU |
| B29 | 0.00471 KA relative to UGCAUGU |
| B30 | 0.0131 KA relative to UGCAUGU |
| B31 | 0.00478 KA relative to UGCAUGU |
